Measurements reported in the supplement of paper PMC3334620.
The full ranking holds about 33,000 sequences; the median of “E-score (-0.5 to 0.5)” is about -0.032, and the highest 2% start at about 0.36. The list shows a part of the results.

Target: T1, Sko1 (UniProt Q02100)
T1 sequence: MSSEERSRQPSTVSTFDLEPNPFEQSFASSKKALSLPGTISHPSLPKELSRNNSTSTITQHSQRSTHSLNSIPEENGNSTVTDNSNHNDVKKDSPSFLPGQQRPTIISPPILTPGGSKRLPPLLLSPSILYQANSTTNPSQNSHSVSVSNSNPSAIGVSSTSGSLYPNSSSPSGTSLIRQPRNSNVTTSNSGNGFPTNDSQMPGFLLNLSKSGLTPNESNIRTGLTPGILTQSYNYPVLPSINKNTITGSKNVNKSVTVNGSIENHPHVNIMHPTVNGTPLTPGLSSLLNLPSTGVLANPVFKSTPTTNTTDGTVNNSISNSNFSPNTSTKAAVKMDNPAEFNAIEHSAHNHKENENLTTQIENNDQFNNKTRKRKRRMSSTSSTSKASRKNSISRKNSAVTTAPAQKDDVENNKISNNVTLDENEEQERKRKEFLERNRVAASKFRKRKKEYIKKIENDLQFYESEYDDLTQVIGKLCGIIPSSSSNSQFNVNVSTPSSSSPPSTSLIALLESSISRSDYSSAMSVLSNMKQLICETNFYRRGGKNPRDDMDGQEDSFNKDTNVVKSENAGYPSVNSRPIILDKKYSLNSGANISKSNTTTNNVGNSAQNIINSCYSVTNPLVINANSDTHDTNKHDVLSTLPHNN
Assay: PBM E-score (8-mer binding enrichment) (E-score (-0.5 to 0.5)); higher = stronger / more preferred TF binding; most listed sequences are background and not binding sites
Details: protein concentration: 200 nM; construct: GST-full length
Summary of the method: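 Yeast transcription factors, full-length or as DNA-binding domains, were expressed with a GST tag using PURExpress in vitro transcription/translation. At about 100-200 nM they were applied to universal all-10-mer Agilent arrays, double-stranded by primer extension on fresh or once-stripped slides. Fluorescent anti-GST detected bound protein, and masliner normalised the scans. E-scores for ungapped eight-base words, pooled with reverse complements, came from the Universal PBM Analysis Suite.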

Sequence | PBM E-score
ATCGCTGG | -0.237
CTAGGTCA | 0.154
ACGTAGAA | 0.434
ATCATCTC | 0.148
TGAATCAA | 0.143
AAACACCA | 0.0437
GTTCAACA | 0.0601
AAAGTCTA | 0.0758
ATTCCACA | 0.085
GAGAACAA | 0.138
ACTGACGC | 0.334
CACCTTCC | -0.146
CCCATCAA | -0.00778
TGCTGCCA | -0.0316
GTATAGGA | 0.0565
AAGTTCCC | -0.187
GCCCCAGC | -0.239
AGGACTTG | -0.208
GCGAAGGA | -0.203
ACGAGCGT | 0.0806
CGTCTGGA | -0.137
AGCCATGC | -0.207
AACTTAGA | 0.138
AGATGGGG | -0.324
GGATCCTA | -0.185

Sequence | PBM E-score
AAATAGCA | 0.107
GACATTGA | 0.0998
CCATCCAG | -0.224
CTCGCGGA | -0.282
ATTTCCAA | -0.048
AGCTTTAT | -0.0333
AGCTCACA | -0.0159
CACTAGAC | -0.0756
ATAGTGCA | 0.0776
ACTGCTAA | -0.215
CCAACCGA | 0.00601
AGGCCCCA | -0.232
GATGCAGA | -0.0834
CCTGAACG | -0.143
CTAACGAG | 0.0316
ACACACAA | 0.252
CCGGTTCG | -0.215
AGCTGAGG | -0.232
CGAGGACC | -0.0757
CGAGCGCC | -0.234
ACCCCTAA | -0.197
ACAAACGT | 0.343
ACAAAGGT | 0.0392
GTTAAAAC | 0.0641
TTCTAAAA | 0.103

Sequence | PBM E-score
CGCGTTAC | 0.129
GACCTAGA | 0.0106
CATAACGG | -0.0211
CGTCCTAA | 0.0445
TACTCTGA | -0.0588
ATAATGCC | -0.0441
CATTTCCC | 0.0531
GCGTGCAC | 0.0342
ATGTTGGA | 0.0266
ATGTCTAC | 0.0729
AAAAAACT | 0.0679
GATACATC | 0.186
GGTTTTCA | 0.00133
GCTTTCCA | 0.00399
AGGGGAAC | -0.316
ACTTTAGC | 0.012
AAGATGCC | -0.245
CTCCAAAG | -0.0795
AGGTATGG | -0.309
CCTACTCG | -0.156
CATAAACC | 0.0461
AGGCCGAG | -0.2
TGGCTGAA | -0.124
ATGTCGGG | -0.0544
CAGATCGA | -0.0859

Sequence | PBM E-score
AACAACTG | 0.00424
GGAAATGA | 0.206
GATAAGGA | 0.0604
AACACTAA | 0.106
CGCTAGCA | -0.0892
AATCACGT | 0.429
GCACGAAC | 0.162
AGAGCACG | 0.0917
CCATCTAA | 0.0462
GGAATCAC | 0.0672
AAATTAAG | 0.0464
AGTTATTA | 0.221
CTATAACC | -0.0181
CCATGCGG | 0.0364
CTTCCTGC | -0.256
CAGTGCTA | -0.151
GTCATGCA | 0.336
CCCCCACG | -0.105
ACATCGGA | -0.0443
AGCCTGTG | -0.19
CACTGCCG | -0.16
GACTTTAA | -0.0659
ATCTCTAC | 0.106
AGACAGGG | -0.29
ACAACTTA | 0.0802

Sequence | PBM E-score
ACCTTGTG | -0.0718
ATAACAAA | 0.244
GTCCGTTA | 0.0181
CGAATAGC | 0.0587
AAAATACA | 0.11
GAAGGGCA | -0.17
CAGTCACC | -0.157
ACGGGTCT | -0.249
AGGATTTC | -0.174
AAGTAGCA | 0.038
CCTGTCAG | -0.285
ACTGCGCC | -0.24
ATGGAACC | -0.204
AAAATCAT | 0.174
ATGTCCTG | -0.139
AATGGAGT | -0.0467
ACCTAGCT | -0.271
AGGTCTTC | -0.263
GATCTTTA | 0.177
ATTGGATG | 0.0724
GACCACCA | -0.158
AATTTCTA | 0.242
GTGCCCCA | -0.178
AAACCCGG | -0.194
TCAGACAA | 0.0129

Sequence | PBM E-score
GGGCGATA | -0.259
CAGATAAA | 0.0135
CGGTCTGA | -0.167
AATATCGG | 0.0658
GTTGCCAA | -0.134
AATCGCAG | -0.0724
AGAAATGC | -0.0706
ACTATTAA | 0.115
ATTCTGGA | 0.204
CGAGGAAC | -0.145
ATTAGTCA | 0.156
AAGCAGCA | -0.239
GGCCATTA | 0.0502
ACGCGATA | 0.25
CAGTTGGC | -0.159
CACATACG | 0.276
CGTGTACC | 0.13
AGGCTAAA | -0.0916
CACCGTTA | -0.00767
AAGGATCC | -0.254
AATGATTA | 0.312
CGTCTCGA | 0.157
GGCGACAC | -0.252
GTCTATGA | 0.238
CCGGCAAG | -0.205

Sequence | PBM E-score
AAATATTG | 0.28
AGTTCATC | 0.048
GGCGGGTA | -0.0963
AAGGATGT | -0.096
CAAAACAA | -0.0728
GACATTCC | -0.0417
AGGCGCTA | -0.0165
CCGCCCAC | -0.19
ACGCACAG | 0.254
CTTGCACC | -0.112
CACTCATG | -0.00775
CGAGGATC | -0.0634
AAGGGCTA | -0.213
GGGTGACC | -0.15
CCTGGGAG | -0.294
AACGTTAC | 0.321
AACTATAC | 0.0559
GCGATGCA | -0.296
GAAGATCA | 0.0236
ACCGACAT | 0.115
GTCGCGAA | -0.0307
ACCAAACC | 0.0081
